Measured values from article PMC4336329 (PLoS ONE, 2015).
In all, about 310,000 compounds went through this assay and about 14,000 (4.5%) showed an effect of 50% or more. The effect is printed as a negative number. This is one part of the list.

Biological target: human ether-à-go-go-related gene (hERG) potassium channel (human, UniProt Q12809)
Assay: primary screen, population patch clamp on CHO cells stably expressing hERG
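Further: peak tail current of the secondary pulse compared with the same well before compound.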

human ether-à-go-go-related gene (hERG) potassium channel, sequence (Q12809 whole entry, looked up): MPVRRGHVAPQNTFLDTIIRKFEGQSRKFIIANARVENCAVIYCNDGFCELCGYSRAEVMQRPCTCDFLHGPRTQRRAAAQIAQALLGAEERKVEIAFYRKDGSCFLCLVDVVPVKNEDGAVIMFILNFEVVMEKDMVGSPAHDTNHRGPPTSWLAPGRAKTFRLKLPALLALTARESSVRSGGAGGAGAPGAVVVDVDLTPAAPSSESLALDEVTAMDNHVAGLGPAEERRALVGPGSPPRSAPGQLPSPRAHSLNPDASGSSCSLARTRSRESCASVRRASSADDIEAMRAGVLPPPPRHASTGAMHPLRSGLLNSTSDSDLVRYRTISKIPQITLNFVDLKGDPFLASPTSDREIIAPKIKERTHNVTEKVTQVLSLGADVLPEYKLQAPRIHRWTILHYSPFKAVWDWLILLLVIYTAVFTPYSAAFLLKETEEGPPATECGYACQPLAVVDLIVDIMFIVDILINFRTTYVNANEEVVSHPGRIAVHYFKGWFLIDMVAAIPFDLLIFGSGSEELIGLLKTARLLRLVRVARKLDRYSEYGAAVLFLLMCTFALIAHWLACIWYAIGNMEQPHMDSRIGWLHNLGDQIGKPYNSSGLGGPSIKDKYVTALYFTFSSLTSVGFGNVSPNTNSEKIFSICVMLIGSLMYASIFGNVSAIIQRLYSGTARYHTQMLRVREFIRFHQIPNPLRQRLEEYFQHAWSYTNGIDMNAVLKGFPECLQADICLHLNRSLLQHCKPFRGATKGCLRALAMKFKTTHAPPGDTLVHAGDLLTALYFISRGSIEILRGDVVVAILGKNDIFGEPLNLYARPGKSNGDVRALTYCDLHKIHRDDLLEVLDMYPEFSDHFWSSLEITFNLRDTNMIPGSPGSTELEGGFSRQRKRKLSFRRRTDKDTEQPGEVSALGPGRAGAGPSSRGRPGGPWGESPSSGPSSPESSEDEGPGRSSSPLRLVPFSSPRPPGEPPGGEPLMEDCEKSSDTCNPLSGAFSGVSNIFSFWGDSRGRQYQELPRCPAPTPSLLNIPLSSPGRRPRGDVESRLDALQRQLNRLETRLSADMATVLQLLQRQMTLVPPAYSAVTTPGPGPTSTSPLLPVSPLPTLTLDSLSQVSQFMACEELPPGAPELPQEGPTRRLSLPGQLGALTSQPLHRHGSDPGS

| Compound | hERG current change (%, negative = inhibition) at 10uM [%] |
| --- | --- |
| CCn1nnc2cc(C(=O)O)ccc21 | 7.03 |
| COc1ccccc1OCC(=O)Nc1c2c(nn1-c1ccc(F)cc1)CS(=O)(=O)C2 | 0.931 |
| CCOc1ccc(C(=O)NCC(=O)N2CCC(C)CC2)cc1OCC | 3.68 |
| CCCC(=O)N1CCN(c2ccc(NC(=O)c3ccc(Br)o3)cc2)CC1 | -8.1 |
| CCC[C@@H]1CCCO[C@@](C(=O)NCc2cc(C)n(C)n2)(C(F)(F)F)C1 | 3.39 |
| Cn1c(-c2ccsc2)c(-c2cccs2)c2cc(Br)ccc21 | -5.11 |
| C=CCc1c(C)nc(SC(C)C)[nH]c1=O | -2.85 |
| O=C(N/N=C/C1CC=CCC1)c1cc(-c2cccnc2)nc2ccccc12 (stereo not shown) | 2.24 |
| COC(=O)c1ccc(NC(=O)c2cc(-c3ccncc3)nc3ccccc23)cc1 | -31.3 |
| CCN1C(=O)[C@H]2[C@@H](c3ccc(-c4cc(C(C)=O)cs4)cc3)N3CCCC[C@@]3(C(=O)OC)[C@H]2C1=O.O=C(O)C(F)(F)F | 10.2 |
| CN1CCC(c2c[nH]c3ccccc23)C1 (stereo not shown) | 10.9 |
| COc1ccc(NC(=O)NCc2ccccc2F)cc1OC | 4.08 |
| C=CCn1c(=NC(=O)c2ccc(S(=O)(=O)N3CCc4ccccc4C3)cc2)sc2cc(S(N)(=O)=O)ccc21 | -0.289 |
| COc1cccc(NC(=O)c2ccccc2)c1 | 3.52 |
| CCOC(=O)C(=CNc1cc(OC)ccc1-n1cccc1)C(=O)OCC | -21.6 |
| Cc1c(C(=O)O)oc2c1ccc1ccccc12 | 24.6 |
| CN(C)CCCN(C(=O)COc1ccc(Cl)cc1)c1nc2cc3c(cc2s1)OCO3.Cl | -59.7 |
| Nn1cnnc1SCC(=O)Nc1ccc2c(c1)OCCO2 | 1.69 |
| COc1ccc(N2CCN(C(=O)c3cc(-c4cccs4)nc4ccccc34)CC2)cc1 | 25.7 |
| O=C(NC(=S)N(Cc1ccccc1)c1ccccn1)C1CC1 | 4.18 |
| Cc1ccc(S(=O)(=O)Nc2ccc(-c3csc(-c4ccccc4)n3)cc2)cc1 | -2.79 |
| CC(=O)c1ccc(OCc2cc(C(=O)NCCN3CCCC(O)C3)no2)cc1 (stereo not shown) | 8.26 |
| C[C@H](NC(=O)c1ncn(Cc2ccccc2)c1C(=O)N[C@@H](C)c1ccccc1)c1ccccc1 | -2.7 |
| CCCCCCCC(=O)NC(Nc1ccccc1OC)C(Cl)(Cl)Cl (stereo not shown) | 18.2 |
| O=C(CSCCc1ccccn1)Nc1cccnc1Cl | -4.44 |
| O=CNCCc1nc2ccccc2n1CCc1ccccc1 | 15.1 |
| Cc1ccccc1N1CCN(S(=O)(=O)c2nnc(NC(=O)c3ccc(F)cc3)s2)CC1 | 17.2 |
| CN(C)S(=O)(=O)c1cccc(NC(=S)NCc2ccc3c(c2)OCO3)c1 | -19.5 |

| Compound | hERG current change (%, negative = inhibition) at 10uM [%] |
| --- | --- |
| COc1ccc(C(=O)N(Cc2ccccc2)c2ccc(C)cc2)cc1S(=O)(=O)N1CCOCC1 | -67.7 |
| O=C1CC(Cc2ccccc2)C(=O)N1c1ccccn1 (stereo not shown) | 19 |
| COc1ccc(-c2nnc3n2CCCCC3)cc1 | 19.9 |
| COc1ccc(-c2nc3nc(C)c(Cc4ccccc4)c(=O)n3[nH]2)cc1 | -14.1 |
| CCn1c(=N)c(S(=O)(=O)c2ccc(C)cc2)cc2c(=O)n3ccccc3nc21 | -5.3 |
| Cc1ccc(S(=O)(=O)N2CCCC2c2cccnc2)cc1 (stereo not shown) | -13.4 |
| COC(=O)c1cccc(C23CC4(C2)[C@H](CN(C)[C@@H]4c2ccccc2)C3c2ccc(C(F)(F)F)cc2)c1 (stereo partly shown) | 14.5 |
| Cc1ccccc1NS(=O)(=O)c1ccc(OCC(=O)NCc2cccnc2)cc1 | -32.8 |
| CSc1nsc(SCC(=O)Nc2ccc(NC(C)=O)cc2)n1 | 8.9 |
| O=C(N/N=C\c1cccc(Cl)c1)c1n[nH]c2c1CCCC2 | 8.51 |
| O=C(CCS(=O)(=O)Cc1ccccc1)N1CCN(c2ccc([N+](=O)[O-])cc2)CC1 | -81.6 |
| O=C(O)c1c2c(nc3ccc(S(=O)(=O)N4CCC(C(=O)NC5CCCC5)CC4)cc13)CCCCC2 | 9.65 |
| O=C(COC(=O)c1cccc(NC(=O)c2ccco2)c1)c1ccc(Br)cc1 | -1.83 |
| O=C(C1CCC(CNS(=O)(=O)c2ccc(F)cc2)CC1)N1CCOCC1 (stereo not shown) | 9.16 |
| COc1cccc(N2CCN(C(=O)c3ccc(=O)oc3)CC2C)c1 (stereo not shown) | -59.7 |
| Cc1ccc(-c2csc(N3CCC(C(N)=O)(N4CCCCC4)CC3)n2)cc1 | 3.99 |
| O=C(COc1cccnc1[N+](=O)[O-])c1c[nH]c2ccccc12 | 13.9 |
| CCc1ccc2[nH]cc(C(=O)N3CCCCCC3)c(=O)c2c1 | -4.9 |
| Cc1cc(O)cc(O)c1C(=O)Cc1cscn1 | 10.3 |
| COc1ccc(N(CC(=O)NC(C)(C)C)S(=O)(=O)c2ccccc2)cc1OC | -5.98 |
| O=C(Nc1cccc(Cl)c1)c1cccnn1 | 12.9 |
| COc1ccc(S(=O)(=O)NC(C)C(=O)NCCN2CCOCC2)cc1Cl (stereo not shown) | 6.96 |
| CC(C)(C)n1nnnc1C(c1cccnc1)N1CCN(C2CCCCC2)CC1 (stereo not shown) | -2.19 |
| Cc1ccc(NC(=O)CN2CCc3ccccc3C2)cc1S(=O)(=O)N1CCOCC1 | -15.3 |
| COc1ccc(C(CNC(=O)c2cccc(S(=O)(=O)N3CCOCC3)c2)N2CCCC2)cc1 (stereo not shown) | -16.3 |
| CCN(CC)S(=O)(=O)c1cccc(C(=O)OC2CC(C)OC2=O)c1 (stereo not shown) | 12.7 |
| CCCn1nc(C(=O)Nc2ccc(S(=O)(=O)Nc3nccs3)cc2)c2ccccc2c1=O | 9.6 |
